This is one part of the list. Further columns of the screen follow, without active or inactive calls.
Assay: enhancers of HSV replication in host cells, fold increase, host cell viability (AID 1956); further: tested in PC3 cells
Details: HSV replication augmentation in cells; fold increase: measured here: primary screen fold increase 10 uM, at 10 µM, stronger effect = higher value; viability: measured here: host cell viability series, at 25 µM, stronger effect = lower value

Row | Compound | fold increase | viability [%]
1 | NC(=O)CN1CCN(C(=O)Nc2ccccc2)CC1 | 1.33 | 99.5
2 | Cc1cc(N2CCCC2)ccc1/C=C1\NC(=S)N(C)C1=O | 4.44 | 84.5
3 | NC(=O)c1c(Nc2nc3c(F)cccc3s2)sc2c1CCCC2 | 4.35 | 101
4 | O=C(OCCN1C(=O)c2cccc3c(N4CCOCC4)ccc(c23)C1=O)c1ccc(Cl)cc1 | 8.34 | –
5 | CCONC(=O)Nc1ccccc1[N+](=O)[O-] | 1.32 | –
6 | CN1CCS/C1=C/C=C1/SC(=S)N(Cc2ccccc2)C1=O | 4.62 | 73.1
7 | O=C(O)/C(=C\C(=O)c1ccccc1)Nc1ccccc1 | 1.37 | 96.8
8 | O=C(Cn1cc2c(n1)CCCCC2)NCc1ccccn1 | 1.33 | –
9 | O=C(Nc1nc(-c2cccs2)cs1)c1cccc(S(=O)(=O)N2CCCCCC2)c1 | 1.12 | –
10 | COc1ccc(/C=C2\SC(=O)NC2=S)cc1OC | 4.99 | –
11 | C/C(Cc1ccccc1)=N\NC(=O)CNC(=O)c1ccc2c(c1)OCCO2 | 1.37 | 103
12 | c1ccc(Nc2ccc3c4c(cccc24)CC3)cc1 | 6.14 | 93
13 | CCOC(=O)C1CCCN(c2nc3ccccc3nc2C(C#N)C(=O)OC(C)C)C1 (configuration not stated) | 1.35 | –
14 | CC(C)Oc1ccc(Cn2c(-c3ccco3)n[nH]c2=S)cc1 | 1.09 | –
15 | CCN1/C(=C/C=C/c2oc3ccc(-c4ccccc4)cc3[n+]2CC)Oc2ccc(-c3ccccc3)cc21 | 9.16 | –
16 | CN(C)c1ccc(/C=C/C(=O)c2ccccc2O)cc1 | 1.96 | 99.5
17 | CCOc1cccc(C2C(C(=O)c3ccc(C)o3)=C(O)C(=O)N2c2nccs2)c1 (configuration not stated) | 1.15 | –
18 | COc1ccc(/C=c2\s/c(=C/C(=O)c3ccc(C)cc3)[nH]c2=O)cc1OC | 2.82 | –
19 | O=C(CCc1nnc(C2CCCCC2)o1)N1CCN(Cc2ccccc2)CC1 | 1.32 | –
20 | Cc1cc(Oc2ccc(N)cn2)ccc1Cl | 1.49 | 96.6
21 | O=C(Oc1ccc2c(c1)O/C(=C\c1ccncc1)C2=O)c1ccccc1 | 1.49 | 87.9
22 | Cc1nc(-c2ccccc2)nc2sc(C(=O)c3ccc(F)cc3)c(N)c12 | 1.46 | 83.6
23 | Cc1nn(C)c(C)c1NC(=O)/C(C#N)=C\N(C)C | 1.4 | 99.5
24 | CN1CCN(C2=CC3=CC(=C(C#N)C#N)CCC3CC2)CC1 (configuration not stated) | 9.42 | 92.3
25 | N#CC1CC(c2ccc([N+](=O)[O-])cc2)=NN1c1ccc([N+](=O)[O-])cc1 (configuration not stated) | 1.58 | –

Row | Compound | fold increase | viability [%]
26 | Cc1cc(/C=c2\sc3nc4ccccc4n3c2=O)c(C)n1-c1ccc(C(=O)O)cc1 | 1.34 | 97.6
27 | Cc1cc(C)n(-c2ncnc3ccccc23)n1 | 1.49 | 97.5
28 | CC(=O)c1cc(CN2CCN(C3CCN(C(C)C)CC3)C(CCO)C2)cs1 (configuration not stated) | 1.42 | 81.8
29 | N#Cc1c(-c2ccccc2)c(-c2ccccc2)n(Cc2ccco2)c1NC(=O)c1cccs1 | 1.16 | –
30 | O=C(CCNC(=O)c1ccc([N+](=O)[O-])cc1)Nc1ccc(N2CCOCC2)cc1N1CCOCC1 | 1.56 | 99.5
31 | Cc1cn(C2OC(COC(=O)c3ccccc3)C(O)C2Cl)c(=O)[nH]c1=O (configuration not stated) | 1.39 | 91.5
32 | CCOC(=O)c1c(N)sc(=S)c2c1CCC2 | 1.27 | –
33 | CCOC(=O)CC1C(=O)NCCN1c1nc2c(C)cccn2c(=O)c1/C=C1\SC(=S)N(C(C)CC)C1=O (configuration not stated) | 7.94 | –
34 | Nc1c(C(=O)c2ccccc2)sc2snc(SCC(=O)c3ccccc3)c12 | 1.54 | 76.1
35 | CNC(=S)NNC(=O)c1oc2nc(-c3ccccc3)cc(-c3ccco3)c2c1N | 1.94 | 98.5
36 | C/C(=N\Nc1ccc([N+](=O)[O-])cc1)c1cc2ccccc2o1 | 2.09 | –
37 | O=C(O)CCC(=O)N1CCc2cc(S(=O)(=O)NCc3cccs3)ccc21 | 1.32 | 99.1
38 | CCOc1ccc(NC(=O)/C(C#N)=C/c2ccc(N3CCCC3)c(C)c2)cc1 | 2.93 | –
39 | N#Cc1ccc(-c2cccnc2)nc1SCC(=O)c1ccccc1 | 3.25 | 92.5
40 | COc1ccc(OC2C(=O)N(Cc3ccc(F)cc3)C2c2cc(OC)c(OC)c(OC)c2)cc1 (configuration not stated) | 1.33 | 104
41 | COc1cc2c3nnc(-c4ccccc4)c-3cn(Cc3ccc(F)cc3)c2cc1OC | 2.46 | 95.4
42 | CCOC(=O)C1=C(N)n2c(s/c(=C\c3ccco3)c2=O)=C(C(=O)OC(C)C)C1c1ccco1 (configuration not stated) | 1.35 | 80.6
43 | O=C(NCCc1ccccc1)C1CCN(c2ncccn2)CC1 | 1.35 | 98.8
44 | Cc1ccc(C2NC(=O)c3c(sc4c3CCN(C)C4)N2)s1 (configuration not stated) | 1.35 | 96.4
45 | Cc1[nH]nc(NNC(=O)c2ccccc2)c1[N+](=O)[O-] | 1.32 | –
46 | Nc1ccccc1Sc1ccc(C(=O)c2ccccc2C(=O)O)cc1[N+](=O)[O-] | 1.4 | 100
47 | COC(=O)c1sc(NC(=O)/C=C/c2ccc(C)o2)nc1C | 1.4 | 99.5
48 | COC(=O)CSc1nc(N)c2c3c(sc2n1)C(c1ccccc1)SC(c1ccccc1)C3 (configuration not stated) | 2.59 | –
49 | Cc1cccc2cc3c(N)c(C(=O)N4CCCc5ccccc54)sc3nc12 | 2.12 | –
50 | CC1=CC(c2ccccc2)n2nc(NS(=O)(=O)c3ccc(C)cc3)nc2N1 (configuration not stated) | 1.35 | 94.8

Row | Compound | fold increase | viability [%]
51 | Cc1cc(C(=O)NNC(=S)NC(C)c2ccccc2)c2ccccc2n1 (configuration not stated) | 1.19 | –
52 | N#C/C(=C\c1ccc(-c2ccc(C(=O)O)cc2)o1)c1nc2ccccc2[nH]1 | 9.08 | 98.5
53 | Cc1cc(C)nc(NN2C(=O)/C(=C/c3ccc(O)cc3)SC2=S)n1 | 2.32 | 90.2
54 | O=C(C1=C(O)C(=O)N(c2nccs2)C1c1ccccc1)c1cc2ccccc2o1 (configuration not stated) | 2.24 | 103
55 | Cc1ccc(Cc2cc(C)n[nH]c2=O)cc1 | 1.55 | 102
56 | COc1cccc(C2=CC(c3cccs3)n3nnnc3N2)c1 (configuration not stated) | 3.45 | 47.7
57 | CCOc1ccc(Br)cc1C1C(C(=O)OC)=C(N)Oc2cc(N(C)C)ccc21 (configuration not stated) | 1.2 | –
58 | COc1ccccc1-c1nnn(CC#N)n1 | 1.34 | 96.5
59 | CCN(CC)c1ccc(/C=C/C(=O)c2ccc(Br)cc2)cc1 | 9.24 | 93.9
60 | O=C(N/N=C/c1sc(N2CCCCC2)nc1-c1cccs1)c1cccnc1 | 1.58 | –
61 | O=C(COC(=O)CC1CC2CCC1C2)NC(=O)NC1CCCC1 (configuration not stated) | 1.36 | 104
62 | NNC(=O)c1ccc(CSc2nc3ccccc3s2)cc1 | 1.35 | 101
63 | C=CCOn1c(=O)c(C)[n+]([O-])c2ccccc21 | 1.66 | 99.9
64 | CN(C)c1ccc(C(=O)/C=C/c2ccco2)cc1 | 1.32 | –
65 | O=c1c[n+]([O-])c2ccccc2n1OCc1ccccn1 | 1.22 | 96.8
66 | CC(=O)c1cc(-c2ccccc2)[nH]c1N1CCCC1 | 1.16 | –
67 | Cc1ccc(-c2nnn(CC(=O)N(CC(=O)NC3CCCCC3)c3cnc4ccccc4c3)n2)o1 | 1.32 | 99.8
68 | COCCN(C(=O)CN1CCCc2ccccc21)c1c(N)n(Cc2ccccc2)c(=O)[nH]c1=O | 3.03 | 98
69 | Fc1ccccc1Cc1noc(CN2CCC(OCc3cccnc3)CC2)n1 | 1.38 | 95.4
70 | COC(=O)c1ccc(-c2ccco2)n1Cc1nc(-c2ccc(OC)c(OC)c2)oc1C | 1.22 | –
71 | CC(=O)Nc1ccc(SCC(=O)c2c(N)n(Cc3ccccc3)c(=O)n(C)c2=O)cc1 | 1.32 | –
72 | CCCN(CCC)S(=O)(=O)c1ccc(C(=O)OCCN2C(=O)c3cccc4c(N5CCOCC5)ccc(c34)C2=O)cc1 | 4.6 | –
73 | CCN(CC)c1ccc2cc(-c3nc(-c4ccc(OC)cc4)cs3)c(=O)oc2c1 | 8.3 | 90
74 | Cc1n[nH]c(C)c1S(=O)(=O)N1CCCC(C(=O)Nc2nccs2)C1 (configuration not stated) | 1.18 | –
75 | CCOC(=O)c1ccccc1N1C(=O)C2Sc3[nH]c(=O)sc3C(/C=C/c3ccccc3)C2C1=O (configuration not stated) | 1.49 | 96.4

Row | Compound | fold increase | viability [%]
76 | O=C1CCN2C=Nc3cccc4ccc1c2c34 | 2.9 | 87.9
77 | Cc1cc(NC(=O)CN2C(=O)NC(C)(c3ccccc3)C2=O)no1 (configuration not stated) | 1.46 | 103
78 | CN1CCn2c1nc(N1CCCCC1)nc2=O | 1.43 | 96.2
79 | CN1CCN(CCCNC(=O)c2cn(C)c3ccc(S(=O)(=O)N(C)C)cc3c2=O)CC1 | 1.33 | 94.4
80 | CC(C)N(Cc1nc(-c2ccc3c(c2)OCO3)no1)Cc1nccn1C | 1.39 | 95.3
81 | O=C(NCCOc1ccccc1F)Nc1ccc(Br)cc1 | 1.32 | –
82 | COc1cc(C2C=C(c3cccs3)Nc3ncnn32)cc(OC)c1OC (configuration not stated) | 9.48 | 49.2
83 | NNc1nc2c(F)cccc2s1 | 1.44 | 90.8
84 | CCCCNc1c2c3c(cccc3n(C)c1=O)C(=O)c1ccccc1-2 | 6.3 | 68.8
85 | COc1cc(/C=C2\SC(=N)N(c3ccc4c(c3)OCO4)C2=O)cc(OC)c1O | 3.12 | 93.6
86 | O=S(=O)(Nc1cc2nc3ccccc3nc2n1Cc1ccccc1)c1ccc(Cl)cc1 | 3.35 | 79.5
87 | O=C1/C(=C/c2ccc(O)c(O)c2)Oc2cc(O)ccc21 | 3.55 | 99
88 | Cc1nc2nc(-c3ccccc3)[nH]n2c(=O)c1C | 1.45 | 88
89 | CN(C)c1ccc(N=Cc2nc(-c3ccccc3)oc2O)cc1 | 2.69 | 91.7
90 | O=C(/C=C/c1ccco1)N1CCN(S(=O)(=O)c2cccs2)CC1 | 1.32 | –
91 | COC(=O)c1cc(NC(=O)c2ccccc2)c(=O)oc1/C=C/Nc1ccc(Oc2ccccc2)cc1 | 5.74 | 96.8
92 | CCOC(=O)c1c(-c2ccc(OC)cc2)csc1/N=C/C1=C(O)CCCC1=O | 1.59 | 91.8
93 | Nc1cc(=O)[nH]c(SCC(=O)Nc2ccc(S(=O)(=O)N3CCOCC3)cc2)n1 | 1.33 | 102
94 | CN1C(=O)CC(c2cn(Cc3ccccc3)c3ccccc23)C1=O (configuration not stated) | 1.37 | 89.4
95 | NC(=O)c1c(NC(=O)C2COc3ccccc3O2)sc2c1CCN(Cc1ccccc1)C2 (configuration not stated) | 1.41 | 79.9
96 | CCN(CC)c1ccc(/C=c2\sc3nc4ccccc4n3c2=O)c(O)c1 | 1.63 | 70.2
97 | COc1ccc(C2=CC(c3cccc(OC)c3)n3nnnc3N2)cc1 (configuration not stated) | 1.88 | –

— PubChem BioAssay AID1956 (SRMLSC, 2009)
